# Measurements as given in the supplement of paper PMC7826260.
# Some of the results follow. Cleavage of a single-stranded DNA pool by Rep nickase domains was read by sequencing for 1 h at 37 °C with 3 µM enzyme; only the middle of the 90-letter strands is printed. A value is the log2 ratio of uncut reads to the pool without enzyme; uncut sequences lie near 0, cut ones below; no hit call is given. Shares of all reads are compared; uncut strands gain when others are lost, and binding without cutting may add a little.
# Tested on: T1, Rep nickase domain of tomato golden mosaic virus
# T1 sequence (residues 1-124, tag not shown): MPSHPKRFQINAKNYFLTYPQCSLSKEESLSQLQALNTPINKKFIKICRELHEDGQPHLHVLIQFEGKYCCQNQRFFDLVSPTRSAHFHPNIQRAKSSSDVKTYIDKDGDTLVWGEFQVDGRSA
# Assay: uncleaved DNA left, log2 of reads against the no-enzyme library (log2 ratio); higher = less cleavage (more negative = more Rep cleavage of the k-mer); sequences stand for … in CTCGTCCG…ACCGGAGA
# Procedure: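 A pool of 90-nt single-stranded DNAs with seven random bases just before the constant AC of the nick site (name = the seven bases) was cut by 3 µM recombinant His6-SUMO-tagged Rep nickase domain (300 nM DNA, 50 mM HEPES pH 8.0, 50 mM NaCl, 1 mM MnCl2, 1 h, 37 °C, three replicates). Uncut DNA was amplified and sequenced.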
row,Sequence,uncleaved DNA left (log2)
1,TTGCTGG,0.0394
2,CCGGACT,-0.0868
3,GCTTATC,0.0884
4,CTGTAAG,0.045
5,GGAGAGC,0.0116
6,AGACCGC,-0.0585
7,GCATGGT,0.0266
8,CGTAAGG,0.17
9,GACCATT,-0.263
10,GATTCTT,-0.315
11,GATCGGA,0.0517
12,GGATCCA,0.0129
13,CAGTGAA,0.0184
14,TCACTGT,-0.173
15,ACTATCA,-0.0619
16,TCCGAGG,0.137
17,GATTTGA,0.1
18,ACTCACC,0.0889
19,AAAGATC,0.153
20,CCTCCCC,-0.0605

row,Sequence,uncleaved DNA left (log2)
1,TGGTATA,0.0727
2,TAAGTTA,-0.0172
3,TAGGGCC,0.122
4,AAGGACA,0.0141
5,TTGGCGC,0.0811
6,TATAAGA,0.0401
7,CCATAGA,0.0854
8,TCACAGA,0.0536
9,TCGCCAC,0.00256
10,TGCCCAG,0.00619
11,TTCGATG,0.0698
12,TATAGAG,0.0682
13,GGCTATA,0.03
14,AGCAGCA,-0.0164
15,ATAACCC,-0.12
16,TCCGATT,0.129
17,AAGGAAA,0.188
18,TAAACAG,0.00296
19,CTGTTCC,-0.173
20,CGACTGC,-0.0962
